# Measured values reported in the antibiotic and cytotoxicity screens of Wong et al. (2023).
# This is one part of the list.
# Experiments:
# [1] = test system: HSkMC (human skeletal muscle cells); test: cytotoxicity call (relative viability < 0.9); details: 10 µM
# [2] = test system: HepG2; test: cytotoxicity call (relative viability < 0.9); details: 10 µM
# [3] = test system: S. aureus RN4220; test: growth inhibition call (relative growth <= 0.2); details: 50 µM
SMILES,cytotoxicity call [1],cytotoxicity call [2],growth inhibition call [3]
C[C@H](CO)N1C[C@H](C)[C@H](CN(C)Cc2ccccc2)Oc2ccc(NC(=O)CCCN(C)C)cc2C1=O,inactive,inactive,inactive
COc1ccc(CN2C[C@@H](C)[C@H](OC)CN(C)C(=O)c3ccc(NC(=O)c4nc5ccccc5s4)cc3OC[C@H]2C)cc1,inactive,inactive,inactive
COc1ccc(C2CNC(=O)C2)cc1OC1CCCC1 (stereo not drawn),inactive,inactive,inactive
C[C@@H]1CN([C@@H](C)CO)C(=O)c2cccc(NC(=O)Nc3ccccc3)c2O[C@@H]1CN(C)C(=O)Nc1cccc2ccccc12,active,inactive,inactive
O=C(C[C@@H]1CC[C@H](NC(=O)CN2CCOCC2)[C@@H](CO)O1)NCCc1ccncc1,inactive,inactive,inactive
C[C@H]1CN([C@@H](C)CO)C(=O)c2ccccc2-c2ccccc2CO[C@H]1CN(C)C(=O)c1cc(Cl)cc(Cl)c1,inactive,inactive,inactive
NCC[C@@H]1CC[C@@H](NC(=O)c2ccccc2F)[C@@H](CO)O1,inactive,inactive,inactive
CC(C)Cc1nc2ccccc2[nH]1,inactive,inactive,inactive
C[C@H]1CN([C@@H](C)CO)S(=O)(=O)c2ccc(Br)cc2O[C@H]1CN(C)C(=O)c1cccnc1,inactive,inactive,inactive
Cc1ccc(S(=O)(=O)N(C)C[C@H]2Oc3ccc(NS(=O)(=O)c4ccc(F)cc4)cc3C(=O)N([C@@H](C)CO)C[C@@H]2C)cc1,inactive,inactive,inactive
C[C@@H]1CN([C@@H](C)CO)C(=O)c2cc(NC(=O)c3ccncc3)ccc2O[C@H]1CN(C)Cc1ccc(C(=O)O)cc1,inactive,inactive,inactive
O=C(C[C@H]1CC=CC[C@H](Cc2ccc(F)cc2)C(=O)OC[C@H](Cc2c[nH]c3ccccc23)NC1=O)NCCO,inactive,inactive,inactive
CO[C@@H]1CN(C)C(=O)c2cc(NS(C)(=O)=O)ccc2OC[C@H](C)N(C(=O)CN(C)C)C[C@@H]1C,inactive,inactive,inactive
CC(/C=C/C(=O)NO)=C\c1cccc(OC[C@@H]2[C@H]3C[C@H]4c5[nH]c6ccccc6c5CCN4C[C@@H]3CC[C@@H]2O)c1,inactive,inactive,inactive
CCCNC(=O)N1C[C@H]2[C@@H](c3ccccc31)[C@@H](CO)N2C(=O)CN1CCOCC1,inactive,inactive,inactive
C[C@H]1CN([C@@H](C)CO)C(=O)c2cc(NC(=O)C3CC3)ccc2O[C@H]1CN(C)S(=O)(=O)c1cn(C)cn1,inactive,inactive,inactive
COc1ccc(NC(=O)Nc2ccc3c(c2)C(=O)N([C@H](C)CO)C[C@H](C)[C@H](CN(C)C(=O)CCC(F)(F)F)OCCCC[C@@H](C)O3)cc1,inactive,inactive,inactive
COc1cccc(S(=O)(=O)Nc2ccc3c(c2)[C@@H]2C[C@@H](CC(=O)NC4CCCCC4)O[C@@H](CO)[C@@H]2O3)c1,inactive,inactive,inactive
C[C@H]1CN([C@@H](C)CO)C(=O)c2cccc(NC(=O)Nc3cccc4ccccc34)c2O[C@H]1CN(C)CC1CC1,inactive,inactive,inactive
C[C@@H]1CN([C@H](C)CO)C(=O)c2cc(NS(=O)(=O)c3ccc(Cl)cc3)ccc2O[C@@H]1CN(C)S(=O)(=O)c1cn(C)cn1,inactive,inactive,inactive
C[C@@H]1CN([C@H](C)CO)C(=O)c2cccc(NC(=O)Nc3ccc(F)cc3)c2O[C@@H]1CN(C)C(=O)Nc1ccc(C(F)(F)F)cc1,inactive,inactive,inactive
